Data on 57 compounds can be found in PubChem BioAssay AID463173 (ICCB-Longwood Screening Facility, Harvard Medical School, 2010).

SMILES strings stand for the structures. In all, about 52,000 compounds went through this assay and about 4,300 (8.3%) were called active. Cut-off read from the data, not from the text of the source: active = survival mostly below about 52% (no sharp cut-off); inactive = mostly above about 56%. The list shows a part of the results.

The assay deals with DeltatarO mutant. The assay can be described thus: S. aureus survival, RN4220 and DeltatarO strains – OD600, teichoic acid synthesis inhibitors, primary screen (AID 463173). As to conditions: S. aureus RN4220 wild type/DeltatarO growth, OD600, 18 h, hits give low values, screened at 18.75 µg/mL (by protocol).
In the case of `O=C(c1cccc([N+](=O)[O-])c1)N1c2nc(-c3ccco3)nn2C2(CCCCC2)[C@@H]2CCCC[C@@H]21`, the survival is inactive: 54%.

As for `CCCCOc1ccc(NC(=O)c2cc3c(n(-c4ccc(Cl)cc4)c2=O)CCCC3=O)cc1`, the survival was inactive: 131%.

On to `Cc1ccc(CNC(=O)CCCn2c(=O)c3ccccc3n(Cc3ccccc3Cl)c2=O)cc1`, for which the survival is inactive: 113%.

For `CC(=O)c1cccc(NC(=O)C2CCN(c3nnc(-n4cccc4)s3)CC2)c1`, the survival was inactive: 80%.

Consider `O=C1c2ccc(Oc3ccc4c(c3)C(=O)N(c3ncccn3)C4=O)cc2C(=O)N1c1ncccn1`, for which the survival was inactive: 86%.

With `Cc1cc2ccccc2nc1SCC(N)=O`, the survival is inactive: 80%.

On to `CCOC(=O)c1c(-c2ccccc2)oc2ccc(OCc3ccc(C)cc3)cc12`, for which the survival is active: 30%.

As to `Cc1ccccc1Cn1c(=O)n(CCCCC(=O)NCc2ccc3c(c2)OCO3)c(=O)c2ccccc21`, the survival was inactive: 78%.

Regarding `Cc1cc2c(n1-c1ccc(C(=O)NCc3cccc(Br)c3)cc1)CCC(C)C2` (configuration not stated), the survival was inactive: 125%.

Take `Cc1cccc(-c2nc3c4ccccc4n(CC(=O)Nc4cc(F)ccc4F)c(=O)n3n2)c1`: the survival was inactive: 75%.

As for `Cc1ccc(N2C(=O)CSC23C(=O)Nc2ccccc23)cc1F` (configuration not stated), the survival is inactive: 101%.

Regarding `O=C(Nc1nnc(N2CCCC2)s1)Nc1cc(F)ccc1F`, the survival is inactive: 85%.

Take `O=C(NCCc1ccccc1)c1c2c(nc3ccccc13)C(=O)N(C1CCCCC1)C2`: the survival was inactive: 92%.

Consider `CCCCNC(=O)c1c[nH]c2c(F)cccc2c1=O`, for which the survival is inactive: 81%.

In the case of `CC(C)Nc1cc(N2CCN(C3CCCCC3)CC2)c2noc3c2c1C(=O)c1ccccc1-3`, the survival is inactive: 83%.

In the case of `COc1ccc(CCNc2nc(-c3ccccc3OC)cc(C(F)(F)F)n2)cc1OC`, the survival was active: -8%.

For `COc1ccccc1N1CCN(C(=O)CSc2nc(C)cc(=O)[nH]2)CC1`, the survival is inactive: 74%.

`O=C(NCc1ccncc1)Nc1ccccc1`: the survival is inactive: 109%.

On to `O=C(c1ccc(Br)cc1)N1CCC(c2nc3ccccc3s2)CC1`, for which the survival is inactive: 99%.

For the compound `CCOc1ccc(CNC(=O)C(C)n2ncn3cccc3c2=O)cc1` (configuration not stated), the survival was inactive: 69%.

In the case of `Cc1c(CN2CCOCC2)c(=O)n(-c2ccccc2)n1C`, the survival was inactive: 87%.

For the compound `CCOC(=O)c1[nH]c(C)c(CCC(=O)Nc2ccc(C)cc2Cl)c1C`, the survival was inactive: 83%.

Consider `CCOc1ccccc1CNC(=O)C1=C(C)C(=O)OC12CCN(C(C)=O)CC2`, for which the survival is inactive: 80%.

Consider `CCOc1ccc(C(=O)Nc2c(C)nc(Nc3ccccc3)nc2Nc2ccccc2)cc1OCC`, for which the survival is active: 49%.

With `COc1ccc(C(=O)Cn2c(=O)n3nc(CCn4nc(C)cc4C)nc3c3cc(OC)c(OC)cc32)cc1`, the survival was inactive: 107%.

With `COc1ccc(S(=O)(=O)Nc2c(C)n(C)n(-c3ccccc3)c2=O)cc1Br`, the survival is inactive: 60%.

Consider `COc1ccc(C2(N3CCN(c4cc(C)ccc4C)CC3)C(=O)c3ccccc3C2=O)cc1`, for which the survival was inactive: 91%.

As to `CCOc1ccccc1NC(=O)CSc1nc2cc(OC)c(OC)cc2c2nc(CCn3c(C)nc4ccccc43)nn12`, the survival was inactive: 66%.

Consider `CCCN(CCC)C(=O)Cn1c(SCc2cccc(F)c2)nc2cccnc21`, for which the survival is inactive: 66%.

As for `N#Cc1cccc(NC(=O)C2CCN(S(=O)(=O)c3ccc4c(c3)CCCN4C(=O)C3CCC3)CC2)c1`, the survival was inactive: 98%.

On to `Cc1ccc(-c2nc(CCNC(=O)C(=O)Nc3ccc(C)c(Cl)c3)cs2)cc1`, for which the survival is inactive: 60%.

`CCOC(=O)c1sc(NC(=O)c2nc3nc(C)cc(C(F)F)n3n2)c(C(=O)OC(C)C)c1C`: the survival was inactive: 73%.

For `COc1ccccc1C(=O)Nc1ccccc1C(=O)OCc1cc(=O)n2ccsc2n1`, the survival is active: -5%.

In the case of `CCCOc1ccc(CNC(=O)CCCN2C(=O)CSc3c2c(C)nn3-c2ccccc2)cc1`, the survival was inactive: 84%.

As to `COc1ccccc1NC(=O)CN1C(=O)C(C)(C)c2ccccc21`, the survival was inactive: 85%.

On to `CN(C)c1cc(N)c2ccccc2n1`, for which the survival is inactive: 103%.

As to `Cc1ccc(CNC(=O)CN2C(=O)C3CCCCN3c3ccc(C(=O)N(C)C)cc32)cc1` (configuration not stated), the survival was inactive: 88%.

In the case of `CC1=C(C(=O)Nc2ccccc2C)C(c2sccc2C)n2ncnc2N1` (configuration not stated), the survival is inactive: 95%.

Take `Cc1ccc(S(N)(=O)=O)cc1NC(=O)c1c(-c2c(Cl)cccc2Cl)noc1C`: the survival was active: 55%.

As to `Cc1nc(-c2ccc(F)cc2)sc1CCNC(=O)c1ccccc1C(F)(F)F`, the survival was inactive: 97%.

Regarding `Cc1ccc2oc(C(=O)NCC(c3ccc(Cl)cc3)N3CCOCC3)c(C)c2c1` (configuration not stated), the survival was inactive: 59%.

For `CCc1ccc(C2C(C#N)=C(N)OC(C)=C2C(=O)OC)cc1` (configuration not stated), the survival was inactive: 79%.

Consider `Cc1ccc(CNC(=O)c2cc3c(=O)n4cccc(C)c4nc3s2)cc1`, for which the survival was active: 54%.

As for `CC(C)c1ccc(NC(=O)C2CCCN(S(=O)(=O)c3ccc4[nH]c(=O)oc4c3)C2)cc1` (configuration not stated), the survival is inactive: 83%.

For `CCCN(CCC)CCCNC(=O)Cn1ncn2c(cc3sc(CC)cc32)c1=O`, the survival was inactive: 100%.

`Cc1ccc(CNC(=O)CN2N=C(c3ccc(C)cc3)CCC2=O)cc1`: the survival was inactive: 99%.

Turning to `CCN(CC)S(=O)(=O)c1ccc2c(c1)c(=O)c(C(=O)N1CCN(c3ccc(OC)cc3)CC1)cn2C`, the survival was inactive: 83%.

Take `CCc1ccccc1NC(=O)c1nc2nc(C)cc(C(F)F)n2n1`: the survival was inactive: 81%.

On to `Cc1nnc(C)c2c(C)n(-c3ccc4c(c3)OCO4)c(C)c12`, for which the survival was inactive: 107%.

Consider `Cn1c(-c2cccc(Br)c2)cnc1NCc1cccc(F)c1`, for which the survival is active: 28%.

Take `Cc1cccc(-c2nnc(SCC(=O)Nc3ccc(C)c(C)c3)o2)c1`: the survival is inactive: 74%.

For `CCOC(=O)COc1ccc(CC)cc1C(=O)c1ccn2nc(-c3ccc(C)cc3)cc2n1`, the survival was inactive: 75%.

Turning to `CCN(CC)CCNC(=O)CN1C(=O)CSc2ccc(S(=O)(=O)N3CCOCC3)cc21`, the survival is inactive: 77%.

As to `Cc1ccc(/C=C/c2onc(C)c2S(=O)(=O)N2CCC(C(=O)Nc3cccc(C#N)c3)CC2)cc1`, the survival is inactive: 71%.

As for `Cc1ccccc1CSc1nc2c([nH]c3ccccc32)c(=O)n1-c1ccccc1`, the survival is inactive: 118%.

As to `CCc1nnc2c(NCc3ccccc3)nc3ccccc3n12`, the survival was inactive: 94%.

For `Cc1ccc(-c2nnc(Nc3ccc(F)cc3)c3ccccc23)cc1S(=O)(=O)NC(C)C`, the survival was inactive: 77%.
